Assay results reported in paper PMC8771830.
No constants are given. Whether binding was seen depends on the method and setting. In cells and extracts the contact can be indirect. Some binding calls cover weakened binding; strength is not graded here. For some of these results: Where a sequence is shown, tags or fusion partners need not be part of it. Each block holds one substance with its values, some of them ahead of it.

Chains of the proteins cited; added tags and fusions are not shown. Lines headed by an entry give the natural chain unless they say otherwise; changes in a name come on top. Residues count along the entry.
UniProt Q08369: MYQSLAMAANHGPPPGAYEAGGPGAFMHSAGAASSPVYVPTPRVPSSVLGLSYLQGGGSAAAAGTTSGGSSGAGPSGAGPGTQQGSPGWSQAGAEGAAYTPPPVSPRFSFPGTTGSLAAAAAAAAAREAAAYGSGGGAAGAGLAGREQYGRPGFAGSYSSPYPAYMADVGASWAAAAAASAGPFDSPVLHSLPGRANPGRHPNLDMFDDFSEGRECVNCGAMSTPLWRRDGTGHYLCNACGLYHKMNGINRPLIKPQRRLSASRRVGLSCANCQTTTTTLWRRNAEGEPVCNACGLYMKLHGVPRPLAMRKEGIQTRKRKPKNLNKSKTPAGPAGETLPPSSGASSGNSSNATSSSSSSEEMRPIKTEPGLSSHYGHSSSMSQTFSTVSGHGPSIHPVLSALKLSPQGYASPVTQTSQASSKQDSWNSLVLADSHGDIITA
GST-GATA4 residues 180-326: residues 180-326 of Q08369
GST-GATA4 residues 180-255: residues 180-255 of Q08369
GST-GATA4 residues 256-326: residues 256-326 of Q08369
UniProt Q09472: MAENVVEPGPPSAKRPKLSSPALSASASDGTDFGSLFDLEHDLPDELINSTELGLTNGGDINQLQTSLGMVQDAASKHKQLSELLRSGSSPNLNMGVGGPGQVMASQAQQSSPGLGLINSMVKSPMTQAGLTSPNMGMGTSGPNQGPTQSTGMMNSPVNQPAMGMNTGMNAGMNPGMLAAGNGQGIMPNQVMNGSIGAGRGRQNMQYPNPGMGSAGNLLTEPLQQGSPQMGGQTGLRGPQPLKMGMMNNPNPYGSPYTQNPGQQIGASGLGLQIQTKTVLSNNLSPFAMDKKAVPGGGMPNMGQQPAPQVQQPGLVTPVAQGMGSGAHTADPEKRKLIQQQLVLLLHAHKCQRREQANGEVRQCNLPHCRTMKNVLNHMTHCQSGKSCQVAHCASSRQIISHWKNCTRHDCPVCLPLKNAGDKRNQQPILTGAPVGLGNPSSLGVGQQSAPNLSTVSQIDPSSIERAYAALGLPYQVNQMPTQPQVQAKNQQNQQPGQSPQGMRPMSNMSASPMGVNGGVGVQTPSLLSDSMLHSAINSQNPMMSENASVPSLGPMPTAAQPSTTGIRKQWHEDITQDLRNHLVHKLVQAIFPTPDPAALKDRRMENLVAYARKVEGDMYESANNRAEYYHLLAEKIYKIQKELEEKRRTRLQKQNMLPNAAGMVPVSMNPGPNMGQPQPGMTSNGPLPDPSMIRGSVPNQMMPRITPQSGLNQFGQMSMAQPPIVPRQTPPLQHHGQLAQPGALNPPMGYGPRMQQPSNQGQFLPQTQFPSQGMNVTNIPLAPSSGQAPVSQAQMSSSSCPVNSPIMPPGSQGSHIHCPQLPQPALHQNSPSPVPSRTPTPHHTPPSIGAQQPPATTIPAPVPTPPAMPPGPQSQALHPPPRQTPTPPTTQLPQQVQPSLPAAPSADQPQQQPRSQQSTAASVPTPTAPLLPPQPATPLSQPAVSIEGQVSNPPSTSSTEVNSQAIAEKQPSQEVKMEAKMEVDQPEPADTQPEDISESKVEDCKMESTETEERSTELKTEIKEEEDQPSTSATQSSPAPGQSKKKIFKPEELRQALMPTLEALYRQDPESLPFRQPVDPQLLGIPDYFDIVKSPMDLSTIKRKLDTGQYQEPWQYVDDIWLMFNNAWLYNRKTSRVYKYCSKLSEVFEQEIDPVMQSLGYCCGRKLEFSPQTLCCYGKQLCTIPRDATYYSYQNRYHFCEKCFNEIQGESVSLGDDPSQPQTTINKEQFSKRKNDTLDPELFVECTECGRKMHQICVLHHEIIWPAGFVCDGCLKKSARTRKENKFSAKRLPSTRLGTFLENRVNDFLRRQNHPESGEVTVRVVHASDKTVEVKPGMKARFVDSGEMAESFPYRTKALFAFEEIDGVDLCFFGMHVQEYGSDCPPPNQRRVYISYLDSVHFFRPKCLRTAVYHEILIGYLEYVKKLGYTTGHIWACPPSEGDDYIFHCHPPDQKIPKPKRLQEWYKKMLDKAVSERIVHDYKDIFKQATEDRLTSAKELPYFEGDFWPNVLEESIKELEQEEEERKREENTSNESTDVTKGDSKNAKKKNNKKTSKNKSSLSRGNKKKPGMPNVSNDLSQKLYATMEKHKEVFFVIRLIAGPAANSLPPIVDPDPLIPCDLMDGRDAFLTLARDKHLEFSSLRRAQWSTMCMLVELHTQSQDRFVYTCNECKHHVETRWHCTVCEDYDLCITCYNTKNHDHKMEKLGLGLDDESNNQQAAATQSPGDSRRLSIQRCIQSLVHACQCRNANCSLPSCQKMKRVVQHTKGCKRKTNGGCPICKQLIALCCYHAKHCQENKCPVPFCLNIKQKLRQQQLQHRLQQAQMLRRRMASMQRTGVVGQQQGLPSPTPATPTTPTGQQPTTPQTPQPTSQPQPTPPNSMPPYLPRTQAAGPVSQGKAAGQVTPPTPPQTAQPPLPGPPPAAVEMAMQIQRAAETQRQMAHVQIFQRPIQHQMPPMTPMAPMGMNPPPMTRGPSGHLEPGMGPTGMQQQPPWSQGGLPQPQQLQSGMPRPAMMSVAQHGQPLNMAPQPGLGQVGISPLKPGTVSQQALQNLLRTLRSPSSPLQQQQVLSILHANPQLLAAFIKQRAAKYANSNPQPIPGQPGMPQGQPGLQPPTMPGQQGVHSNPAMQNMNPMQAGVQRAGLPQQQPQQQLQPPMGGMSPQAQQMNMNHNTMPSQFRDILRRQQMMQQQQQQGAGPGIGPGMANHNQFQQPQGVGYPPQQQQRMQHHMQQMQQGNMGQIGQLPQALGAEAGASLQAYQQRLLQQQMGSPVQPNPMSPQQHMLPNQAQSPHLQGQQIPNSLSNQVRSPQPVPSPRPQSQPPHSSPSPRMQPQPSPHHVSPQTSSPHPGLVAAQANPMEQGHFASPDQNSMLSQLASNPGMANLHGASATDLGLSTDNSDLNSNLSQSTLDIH

Experiments:
[1] = target: GATA4 expressed in HEK293T cells (FLAG-GATA4, HA-GATA4, 3xMyc-GATA4) (UniProt Q08369); experiment: co-IP; nuclear extracts of HEK293T cells expressing FLAG-GATA4 (or FLAG-GATA4 m456A) and HA-GATA4, without or with co-expressed HA-p300 (wild type or AS); anti-FLAG or anti-HA immunoprecipitation, Western blotting with anti-HA and anti-FLAG
[2] = target: GATA4 expressed in HEK293T cells (FLAG-GATA4, HA-GATA4, 3xMyc-GATA4) (UniProt Q08369); experiment: co-IP; nuclear extracts of HEK293T cells expressing FLAG-GATA4, HA-p300, with or without GMP; anti-FLAG immunoprecipitation; blotted with anti-FLAG, anti-acetyl lysine, anti-p300, anti-HA
[3] = target: GST-GATA4 residues 180-255 (UniProt Q08369); experiment: pull-down; GST fusion proteins immobilized on Glutathione-Sepharose 4B, mixed with in vitro translated 35S-labelled GATA4, 2 h at 4°C; washed five times with 20 mM Tris pH 8.0, 2.5 mM MgCl2, 100 mM KCl, 5% glycerol, 0.1% Tween20; BAS2000 bio-imaging analyzer; only the target purified
[4] = target: T1, GST-GATA4 residues 308-326 (UniProt Q08369); experiment: as above
T1 sequence: AMRKEGIQTRKRKPKNLNK

[5] = target: GST-GATA4 residues 256-326 (UniProt Q08369); experiment: as above
GST-full length GATA4 = GST-full length GATA4 (UniProt Q08369); experiment: as above
[6] = target: GST-GATA4 residues 180-326 (UniProt Q08369); experiment: as above

binding [1]: binds
Substance: GATA4 expressed in HEK293T cells (FLAG-GATA4, HA-GATA4, 3xMyc-GATA4) (from UniProt Q08369 1-441)

binding [2]: binds
Substance: HA-p300 (from UniProt Q09472 1-2414)

binding [3]: no binding
binding [4]: binds
binding [5]: binds
binding (GST-full length GATA4): binds
binding [6]: binds
Substance: ^35S-labelled GATA4 protein (from UniProt Q08369 1-441)
